Test in all cases: competitive binding assay, integrin-coated plate, probe isoDGR/STV-HRP
One experiment deals with T1, Human integrin α5β1 (human, UniProt P08648 42-1049; P05556, limits assumed).
T1 construct: Bought from Immunological Sciences; coated on microtiter plates

Experiment [1] deals with T2, Recombinant human integrin αvβ8 (human, UniProt P06756 31-992; P26012 43-684).
T2 construct: Bought from R&D System; also called αvβ38 [sic]

The target in the next experiment is T3, Human integrin αvβ3 (human, UniProt P06756 31-1048; P05106 27-788, limits assumed).
T3 construct: Bought from Immunological Sciences; coated on microtiter plates or spotted on nitrocellulose; also called avb3; purified αvβ3-integrin

Experiment [2] concerns the target T4, Recombinant human integrin αvβ6 (human, UniProt P06756 31-992; P18564 22-707).
T4 construct: Bought from R&D System

The target in the next experiment is T5, Human integrin αvβ5 (human, UniProt P06756 31-1048; P18084 24-799, limits assumed).
T5 construct: Bought from Immunological Sciences; coated on microtiter plates

Human integrin αvβ5, sequence (P06756 31-1048 limits assumed, chain 1 of 2): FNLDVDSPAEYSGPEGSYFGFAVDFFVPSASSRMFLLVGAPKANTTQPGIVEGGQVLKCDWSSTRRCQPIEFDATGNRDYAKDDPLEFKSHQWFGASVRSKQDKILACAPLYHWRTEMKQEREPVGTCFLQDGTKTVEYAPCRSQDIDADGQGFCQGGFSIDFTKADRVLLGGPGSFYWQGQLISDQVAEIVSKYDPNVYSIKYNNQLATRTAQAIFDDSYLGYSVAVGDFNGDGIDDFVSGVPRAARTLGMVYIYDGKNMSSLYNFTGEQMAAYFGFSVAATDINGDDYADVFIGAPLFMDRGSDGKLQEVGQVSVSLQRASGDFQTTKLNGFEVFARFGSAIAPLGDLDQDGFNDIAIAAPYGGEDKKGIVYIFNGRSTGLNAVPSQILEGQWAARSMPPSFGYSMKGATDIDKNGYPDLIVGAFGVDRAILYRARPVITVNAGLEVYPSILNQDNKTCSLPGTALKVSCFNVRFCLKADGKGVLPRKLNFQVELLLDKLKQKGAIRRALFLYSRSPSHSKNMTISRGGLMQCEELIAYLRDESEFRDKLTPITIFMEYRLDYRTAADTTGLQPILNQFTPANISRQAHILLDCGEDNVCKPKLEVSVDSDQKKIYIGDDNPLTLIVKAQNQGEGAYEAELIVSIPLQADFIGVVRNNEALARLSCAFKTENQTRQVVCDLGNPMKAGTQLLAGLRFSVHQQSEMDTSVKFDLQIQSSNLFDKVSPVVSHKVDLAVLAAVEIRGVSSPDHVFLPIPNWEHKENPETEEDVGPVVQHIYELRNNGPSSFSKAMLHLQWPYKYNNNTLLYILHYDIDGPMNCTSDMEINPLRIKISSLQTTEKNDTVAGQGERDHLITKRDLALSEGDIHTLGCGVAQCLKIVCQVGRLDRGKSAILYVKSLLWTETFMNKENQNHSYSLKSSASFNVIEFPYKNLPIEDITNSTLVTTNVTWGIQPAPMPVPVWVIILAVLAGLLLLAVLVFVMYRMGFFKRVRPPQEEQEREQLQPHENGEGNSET
Human integrin αvβ5, sequence (P18084 24-799 limits assumed, chain 2 of 2, further chain): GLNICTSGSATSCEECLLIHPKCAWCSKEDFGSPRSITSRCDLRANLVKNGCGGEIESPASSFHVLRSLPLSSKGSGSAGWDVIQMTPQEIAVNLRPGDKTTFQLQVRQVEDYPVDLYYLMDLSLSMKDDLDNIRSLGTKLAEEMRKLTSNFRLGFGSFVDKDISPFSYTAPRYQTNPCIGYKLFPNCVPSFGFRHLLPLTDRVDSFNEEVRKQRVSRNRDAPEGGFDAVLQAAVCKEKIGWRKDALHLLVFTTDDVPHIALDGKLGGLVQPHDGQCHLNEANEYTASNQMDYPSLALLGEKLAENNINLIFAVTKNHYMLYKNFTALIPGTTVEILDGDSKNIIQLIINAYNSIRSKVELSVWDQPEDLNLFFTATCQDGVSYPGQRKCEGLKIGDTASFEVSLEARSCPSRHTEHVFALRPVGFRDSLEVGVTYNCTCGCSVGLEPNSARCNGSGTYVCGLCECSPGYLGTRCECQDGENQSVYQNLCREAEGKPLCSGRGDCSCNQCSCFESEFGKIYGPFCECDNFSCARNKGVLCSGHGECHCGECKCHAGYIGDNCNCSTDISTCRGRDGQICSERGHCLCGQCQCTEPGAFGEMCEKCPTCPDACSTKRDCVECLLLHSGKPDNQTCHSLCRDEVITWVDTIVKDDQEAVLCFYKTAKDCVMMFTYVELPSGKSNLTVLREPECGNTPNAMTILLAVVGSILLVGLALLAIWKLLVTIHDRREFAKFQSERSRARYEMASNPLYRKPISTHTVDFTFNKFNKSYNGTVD
Human integrin αvβ3, sequence (P06756 31-1048 limits assumed, form in doubt, chain 1 of 2): as the sequence (P06756 31-1048 limits assumed, chain 1 of 2) above
Human integrin αvβ3, sequence (P05106 27-788 limits assumed, form in doubt, chain 2 of 2, further chain): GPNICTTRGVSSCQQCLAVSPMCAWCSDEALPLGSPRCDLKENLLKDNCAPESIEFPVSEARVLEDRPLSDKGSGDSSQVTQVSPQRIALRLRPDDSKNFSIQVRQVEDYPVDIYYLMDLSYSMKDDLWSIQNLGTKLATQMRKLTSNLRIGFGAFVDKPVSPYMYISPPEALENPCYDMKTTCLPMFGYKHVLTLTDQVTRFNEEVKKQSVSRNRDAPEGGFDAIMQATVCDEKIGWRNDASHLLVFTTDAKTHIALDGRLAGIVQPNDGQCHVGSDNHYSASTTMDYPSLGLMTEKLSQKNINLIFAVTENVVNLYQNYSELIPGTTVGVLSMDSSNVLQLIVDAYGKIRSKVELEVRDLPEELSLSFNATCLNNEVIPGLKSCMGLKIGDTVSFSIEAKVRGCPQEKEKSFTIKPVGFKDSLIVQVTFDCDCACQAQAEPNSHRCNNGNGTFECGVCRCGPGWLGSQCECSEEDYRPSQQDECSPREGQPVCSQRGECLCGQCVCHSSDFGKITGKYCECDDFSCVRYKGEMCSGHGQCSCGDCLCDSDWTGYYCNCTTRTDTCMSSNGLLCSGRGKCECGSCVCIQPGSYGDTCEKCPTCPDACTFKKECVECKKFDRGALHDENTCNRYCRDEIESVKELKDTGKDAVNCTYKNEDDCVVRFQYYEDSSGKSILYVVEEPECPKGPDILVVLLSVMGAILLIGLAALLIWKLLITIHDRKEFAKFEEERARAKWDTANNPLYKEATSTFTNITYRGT
Human integrin α5β1, sequence (P08648 42-1049 limits assumed, chain 1 of 2): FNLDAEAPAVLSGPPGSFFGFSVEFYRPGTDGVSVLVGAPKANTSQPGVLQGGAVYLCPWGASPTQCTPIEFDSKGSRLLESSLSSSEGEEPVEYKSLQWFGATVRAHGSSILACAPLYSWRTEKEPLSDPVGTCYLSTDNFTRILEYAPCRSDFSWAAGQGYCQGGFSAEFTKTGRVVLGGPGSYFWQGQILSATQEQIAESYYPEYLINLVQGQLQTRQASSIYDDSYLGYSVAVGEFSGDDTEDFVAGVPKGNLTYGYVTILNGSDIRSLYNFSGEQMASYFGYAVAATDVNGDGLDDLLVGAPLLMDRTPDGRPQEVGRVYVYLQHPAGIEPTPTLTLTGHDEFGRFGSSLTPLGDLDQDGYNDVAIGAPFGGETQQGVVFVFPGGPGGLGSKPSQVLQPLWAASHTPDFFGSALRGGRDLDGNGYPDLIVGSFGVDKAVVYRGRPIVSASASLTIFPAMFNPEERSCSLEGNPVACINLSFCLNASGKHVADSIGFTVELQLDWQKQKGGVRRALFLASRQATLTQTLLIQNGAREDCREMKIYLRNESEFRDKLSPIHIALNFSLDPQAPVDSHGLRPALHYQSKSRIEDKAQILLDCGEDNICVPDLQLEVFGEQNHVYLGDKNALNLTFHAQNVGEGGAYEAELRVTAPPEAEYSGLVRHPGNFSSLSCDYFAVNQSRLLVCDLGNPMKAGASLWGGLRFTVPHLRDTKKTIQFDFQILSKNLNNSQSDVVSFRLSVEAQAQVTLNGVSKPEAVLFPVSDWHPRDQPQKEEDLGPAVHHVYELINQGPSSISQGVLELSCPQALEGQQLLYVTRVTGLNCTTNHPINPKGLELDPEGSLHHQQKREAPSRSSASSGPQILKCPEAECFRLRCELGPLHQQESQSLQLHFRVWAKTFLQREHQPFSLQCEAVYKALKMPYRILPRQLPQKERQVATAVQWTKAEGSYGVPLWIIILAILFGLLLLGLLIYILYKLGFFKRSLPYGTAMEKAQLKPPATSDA
Human integrin α5β1, sequence (P05556 21-798 limits assumed, chain 2 of 2, further chain): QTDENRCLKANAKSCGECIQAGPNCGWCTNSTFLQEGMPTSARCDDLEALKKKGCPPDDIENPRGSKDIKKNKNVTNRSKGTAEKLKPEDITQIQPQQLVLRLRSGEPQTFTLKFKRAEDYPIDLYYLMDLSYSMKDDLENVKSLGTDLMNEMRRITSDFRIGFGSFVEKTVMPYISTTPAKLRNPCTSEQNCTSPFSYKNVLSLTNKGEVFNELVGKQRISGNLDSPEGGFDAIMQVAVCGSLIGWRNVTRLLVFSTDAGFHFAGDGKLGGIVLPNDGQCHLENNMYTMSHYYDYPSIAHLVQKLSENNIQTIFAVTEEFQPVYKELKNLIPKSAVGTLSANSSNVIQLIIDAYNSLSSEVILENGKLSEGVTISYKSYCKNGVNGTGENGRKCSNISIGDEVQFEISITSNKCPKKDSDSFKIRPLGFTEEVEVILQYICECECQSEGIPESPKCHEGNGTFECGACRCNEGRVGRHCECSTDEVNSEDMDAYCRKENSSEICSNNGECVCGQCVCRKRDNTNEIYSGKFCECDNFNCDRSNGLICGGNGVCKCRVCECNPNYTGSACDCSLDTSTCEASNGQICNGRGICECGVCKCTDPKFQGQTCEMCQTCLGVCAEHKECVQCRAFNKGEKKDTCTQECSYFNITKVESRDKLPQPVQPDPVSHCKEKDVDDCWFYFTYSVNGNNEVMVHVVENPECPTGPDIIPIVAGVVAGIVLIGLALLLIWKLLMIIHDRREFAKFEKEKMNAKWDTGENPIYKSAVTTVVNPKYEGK

B1: isoDGR#1-AV(9:1) (other)
peptide: CGDGRG
chain: ARKCSLTGKWTNDLGSNMTIGAVNSRGEFTGTYITAVTATSNEIKESPLHGTQNTINKRTQPTFGFTVNWKFSESTTVFTGQCFIDRNGKEVLKTMWLLRSSVNDIGDDWKATRVGINIFTRLRTQKE
modifications: amino groups carrying SMCC linker; isoaspartate (isoD) at position 3; head-to-tail cyclized; Cys thiol joined to the SMCC linker on avidin
notes: also called isoDGR#1-avidin conjugate
For the molecule B1, the Ki with Human integrin α5β1 was 96 nM; in experiment [1] it was 382 nM; in the experiment with Human integrin αvβ3, 1 nM; in experiment [2], 23 nM; with Human integrin αvβ5, 3.9 nM. Besides, the “ratio of integrin Ki/αvβ3 Ki” value was 96 in the experiment with Human integrin α5β1; 382 in experiment [1]; 1 with Human integrin αvβ3; 23 in experiment [2]; 3.9 in the experiment with Human integrin αvβ5.

B2: *AV(0:1) (other, UniProt P02701 25-152, looked up)
chain: ARKCSLTGKWTNDLGSNMTIGAVNSRGEFTGTYITAVTATSNEIKESPLHGTQNTINKRTQPTFGFTVNWKFSESTTVFTGQCFIDRNGKEVLKTMWLLRSSVNDIGDDWKATRVGINIFTRLRTQKE
modifications: amino groups carrying SMCC linker, no peptide
notes: Control lacking the peptide; also called linker-avidin
Turning to B2, the Ki in experiment [1] was found to be 1460 nM.
